# Reference: PubChem BioAssay AID686978 (National Center for Advancing Translational Sciences (NCATS), 2013)
# “And” between values parts separate entries of the source, which are not always exact repeats. Equal values may be shown once. Among all 420,000 compounds or so, about 64,000 (15%) were called active. This list was built around the results that the source calls inconclusive (neither active nor inactive); the mix of calls is not that of the screen. Calls come from the whole dose curve; as a rule, active = well fitted inhibition curve with a large enough effect; inconclusive = small, poorly fitted or top-dose-only effect; inactive = flat fitted curve, though single readings scatter. A potency beside an inconclusive call is a rough fit, not a confirmed value.
# Assay: qHTS for Inhibitors of human tyrosyl-DNA phosphodiesterase 1 (TDP1): qHTS in cells in absence of CPT; note: nearly all actives have a fitted effect of over 55% in size
# Details: DT40 Tdp1-/- hTDP1 cells, no CPT, ATP luminescence, 48 h; series mostly up to 46.2 µM
# Summary of the method: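 Camptothecin absent (DMSO only). Human TDP1-complemented DT40 knockout cells, 400 cells/well, 37 °C for minimum 48 hr; ATP measured via CellTiter-Glo, 30 min dark incubation, luminescence.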
# Potency is the fitted concentration of half-maximal effect; tags give direction and shape of the fitted curve.
row,Compound,Potency
1,Cc1cc(N2CCOCC2)nc2ccc(NC(=O)CCC(=O)N3CCN(c4cccc(C(F)(F)F)c4)CC3)cc12,active: 2.06 µM
2,CCOC(=O)[C@]12CCCC=C1N(CCC1=CCCCC1)C(=O)[C@H](CC(=O)NCc1cccs1)C2,active: 20.6 µM
3,CC(C)c1ccc(NC(=O)N2CCc3nc(NCc4cccc(Oc5ccccc5)c4)ncc3C2)cc1,active: 16.4 µM
4,CC1(C)CC(=O)C=C(/C=C/c2ccccc2)C1,inactive
5,CCOC(=O)c1nnsc1C(OC)Oc1ccccc1 (stereo not drawn),"inconclusive: 29.1 µM [inhibitor, single point]"
6,Clc1ccc(-c2n[nH]c3c2CCC3)cc1Cl,"inconclusive: 17.8 µM [inhibitor, partial curve, poor fit]"
7,CCNc1nc(NCC)n2c(SC(C(=O)Nc3cc(C)ccc3OC)c3ccccc3)nnc2n1 (stereo not drawn),"inconclusive: 29.1 µM [inhibitor, single point]"
8,O=C1CC(c2nc(-c3ccccc3)no2)CN1c1ccc2c(c1)OCCO2 (stereo not drawn),inactive
9,Cc1ccc(-c2nn(-c3ccc(F)cc3)cc2C(=O)N(C)CC(=O)Nc2ccc(N3CCOCC3)cc2)cc1,active: 14.6 µM
10,O=C(CCN1C(=O)c2cccc3cccc(c23)C1=O)N1CCN(c2ccccc2F)CC1,"inconclusive: 29.1 µM [inhibitor, partial curve]"
11,Cc1cc(Cl)ccc1NS(=O)(=O)c1ccc2c(c1)CC(C)N2C(=O)C1CCC1 (stereo not drawn),active: 16.4 µM
12,S=C(NCc1cccnc1)Nc1ccc(Oc2ccccc2)cc1,"inconclusive: 29.1 µM [inhibitor, single point]"
13,C/C(=N\Nc1ccc([N+](=O)[O-])cc1)c1cc2ccccc2o1,"inconclusive: 23.1 µM [inhibitor, single point]"
14,CCOC(=O)c1sc2ccccc2c1OC(=O)c1ccc(C)cc1,"inconclusive: 32.6 µM [inhibitor, single point]"
15,CC(=O)c1cccc(NC(=O)CN2C(=O)c3cccnc3Oc3ccc(Cl)cc32)c1,active: 13 µM
16,CC(C)c1onc(C(=O)N2CCCCCC2)c1[N+](=O)[O-],"inconclusive: 20.6 µM [inhibitor, single point]"
17,Cc1ccc(Cn2cc(S(=O)(=O)c3ccc(C)cc3)c(=O)c3cc(F)c(N4CCCC4)cc32)cc1,"inconclusive: 7.31 µM [inhibitor, partial curve]"
18,CCOC(=O)c1cc(NC(=O)Nc2cc(C)ccn2)c(C)nc1C,"inconclusive: 9.2 µM [inhibitor, partial curve]"
19,CC(C)CCn1c(SCC(=O)N2CC(=O)Nc3ccccc32)nc2scc(-c3cccs3)c2c1=O,"inconclusive: 18.4 µM [inhibitor, single point]"
20,O=C(COc1ccccc1)Nc1cc(S(=O)(=O)N2CCOCC2)ccc1N1CCCC1,inactive
21,COc1cc(C(=O)NCCNc2nc3ccc(C)cc3cc2C#N)cc(OC)c1OC,"inconclusive: 25.9 µM [inhibitor, single point]"
22,C/C=C/c1ccc(OCCCNCC(C)O)c(OC)c1 (stereo not drawn),"inconclusive: 29.1 µM [inhibitor, single point]"

row,Compound,Potency
1,CN(C)c1ccc(N2C(=NC(=O)c3ccccc3)SC3CS(=O)(=O)CC32)cc1 (stereo not drawn),inactive
2,COc1cccc(Nc2nc(-c3ccc4c(c3)OCCO4)cs2)c1,"inconclusive: 20.6 µM [inhibitor, partial curve]"
3,O=c1[nH]c(CSc2nnc(Cc3ccccc3)o2)nc2ccccc12,"inconclusive: 29.1 µM [inhibitor, single point]"
4,CC12CC3CC(C)(C1)CC(NCc1ccncc1)(C3)C2,inactive
5,Cc1nnc2c3ccccc3c(-c3cccs3)nn12,"inconclusive: 13 µM [inhibitor, single point]"
6,CCn1c2ccccc2c2cnc(N=CN(C)C)c(C#N)c21,active: 14.6 µM
7,COc1cc2c3nnc(-c4ccc(F)cc4)c-3cn(Cc3cccc(C)c3)c2cc1OC,active: 2.59 µM
8,Cc1ccc(CNC(=O)C2CCN(C(=O)c3cnn(-c4ccccc4)c3-n3cccc3)CC2)cc1,active: 9.2 µM
9,Cc1nc(-c2cc(-c3nc(-c4ccc(C(C)(C)C)cc4)no3)no2)cs1,"inconclusive: 16.4 µM [inhibitor, partial curve, poor fit]"
10,O=C(Nc1cc(Cl)cc(Cl)c1)c1ccc(Cn2c(=O)[nH]c3ccsc3c2=O)cc1,"inconclusive: 18.4 µM [inhibitor, single point]"
11,CSCCC(=O)N1CCC(CCC(=O)NC2CC2)CC1,inactive
12,O=C1OC(c2ccccc2)Cc2cc(C(=O)N3CCN(c4ccc(F)cc4)CC3)ccc21 (stereo not drawn),"inconclusive: 29.1 µM [inhibitor, single point]"
13,CCC(C)NC(=O)CN(c1cc(C)cc(C)c1)S(=O)(=O)c1c(C)[nH]c(=O)[nH]c1=O (stereo not drawn),inactive
14,O=C1c2cccc3c(Nc4ccccc4Cl)c([N+](=O)[O-])cc(c23)C(=O)N1CCO,"inconclusive: 20.6 µM [inhibitor, single point]"
15,CNC(=S)NNC(=O)c1oc2nc(-c3ccccc3)cc(-c3ccco3)c2c1N,inactive
16,CCOC(=O)c1sc(NC(=S)NC(=O)c2ccccc2)c(C(=O)OCC)c1C,"inconclusive: 29.1 µM [inhibitor, single point]"
17,CCCCCCCCCNC(=O)[C@H](NC(=O)COc1ccccc1)[C@@H]1NC(C(=O)OC)C(C)(C)S1 (stereo partly drawn),"inconclusive: 35.5 µM [inhibitor, single point] and inconclusive: 29.1 µM [inhibitor, single point]"
18,O=C(c1ccccc1)N1N=C(c2ccccc2)CC1c1ccccc1[N+](=O)[O-] (stereo not drawn),"inconclusive: 29.1 µM [inhibitor, single point]"
19,COc1ccc(N2C(=NC(=O)CCC3CCCC3)SC3CS(=O)(=O)CC32)cc1 (stereo not drawn),inactive
20,Cc1sc2nc(CSc3ccccc3)nc(N3CCOCC3)c2c1C,"inconclusive: 29.1 µM [inhibitor, single point]"
21,CCOc1cc(/C=N/NC(=O)Cn2nc([N+](=O)[O-])cc2C)cc(Br)c1OCc1ccccc1C,"inconclusive: 29.1 µM [inhibitor, single point]"
